Experimental data: PubChem BioAssay AID1745853 (National Center for Advancing Translational Sciences (NCATS), 2022)
The list shows a part of the results. Shown are side measurements of this screen, not its main read-out; they come without a call.

Legend:
Test in all cases: Primary Screen for Target Class Profiling of Small Molecule Inhibitors of Methyltransferases
[1] = biological target: Glycine N-methyltransferase (Homo sapiens) (UniProt Q14749); details: purified enzyme, MTase-Glo SAH luminescence; measured here: GNMT inhibition; at 40 µM; stronger effect = lower value
In short: (§1)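 Each enzyme was reacted with SAM and its substrate, with compounds tested once at 40 uM; SAH formed was read by MTase-Glo luminescence.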

[2] = biological target: Guanidinoacetate N-methyltransferase (Homo sapiens) (UniProt Q14353); details: purified enzyme, MTase-Glo SAH luminescence; measured here: GAMT inhibition; at 40 µM; stronger effect = lower value
In short: as §1

[3] = biological target: Histamine N-methyltransferase (Homo sapiens) (UniProt P50135); details: purified enzyme, MTase-Glo SAH luminescence; measured here: HNMT inhibition; at 40 µM; stronger effect = lower value
In short: as §1

[4] = biological target: Nicotinamide N-methyltransferase (Homo sapiens) (UniProt P40261); details: purified enzyme, MTase-Glo SAH luminescence; measured here: NNMT inhibition; at 40 µM; stronger effect = lower value
In short: as §1

[5] = biological target: Phenylethanolamine N-methyltransferase (Homo sapiens) (UniProt P11086); details: purified enzyme, MTase-Glo SAH luminescence; measured here: PNMT inhibition; at 40 µM; stronger effect = lower value
In short: as §1
On the % scale 0 is the no-effect control and ±100 the full control effect.

Compound | activity change, negative = inhibition [1] | activity change, negative = inhibition [2] | activity change, negative = inhibition [3] | activity change, negative = inhibition [4] | activity change, negative = inhibition [5]
CC(=O)Nc1c2n(c3ccccc13)CC(C)(C(=O)NC1CCCC1)N(C1CCCCC1)C2=O (stereo not given) | 3.6% | 0.174% | 2.35% | 5.94% | 2.03%
COc1ccc(OC)c(CNC(=O)C2(CCO)CC23CCOCC3)c1 (stereo not given) | -1.45% | -3.1% | 0.151% | -3.24% | 3.56%
CCOC(=O)C1=Cc2ccc(C(F)(F)C(F)(F)F)cc2N=C(N)C1 | -4.54% | 10.1% | 11.9% | -16.7% | 8.13%
O=C(N[C@@H]1CN(C(=O)c2ccccn2)CC[C@@H]1CO)C1CC1 | -0.424% | 1.1% | -0.448% | -0.765% | 0.369%
COc1cccc(-c2ccccc2NC(=O)C2CCN(Cc3ccccc3F)CC2)c1 | -2.9% | -0.504% | -8.24% | -4.09% | 7.59%
Cc1[nH]c(/C=C2\C(=O)Nc3ccc(F)cc32)c(C)c1C(=O)NCCN1CCCC1 | -12.6% | 4.84% | -40.9% | -8.83% | -8.48%
COc1ccc(CC(=O)N(C)C2CCc3ccccc3C2)cc1 (stereo not given) | -8.16% | -7.07% | -4.83% | -18.7% | -10.1%
CN(C)c1cccc(-c2cnc(Nc3ccc(N4CCOCC4)cc3)c3c2CCO3)c1 | -9.15% | -2.94% | -4.18% | -5.43% | -5.73%
O=C(NCCc1ccc(Cl)cc1)c1ccc2c(=O)nc3c(-c4ccccc4F)n[nH]n3c2c1 | -16% | 3.78% | 0.493% | -3.66% | -3.27%
CCOc1ccc(CN2C(=O)c3cc4ccccc4n3CC2(C)C(=O)NCc2ccccc2)cc1OC (stereo not given) | -9.91% | -0.423% | -6.92% | -12.4% | -9.74%
Cc1ccc(CNc2ncnc3ccc(-c4ccc(CO)o4)cc23)o1 | -5.56% | -3.24% | 5.14% | -19.9% | -14%
Cc1ccc(Cl)cc1NC(=O)c1nc[nH]c1C(=O)Nc1nc2ccccc2[nH]1 | – | -3.25% | – | -19% | -7.01%
C/C(=C\CC[C@H](CO)[C@@H]1CC[C@]2(C)C3=C(CC[C@@]12C)[C@@]1(C)CCC(=O)C(C)(C)C1CC3)C(=O)O (stereo not given in full) | 0.425% | 6.38% | 6.13% | -13.8% | 3.37%
CC(=O)N1CCN(C(=O)c2nc(N)nc3c2CCCC3)CC(O)C1 (stereo not given) | 1.77% | 1.36% | 2.74% | -3.5% | -0.161%
CCc1cc2c(cc3n2CC(C(=O)NC2CCCCCC2)(c2ccccc2)N(Cc2ccccc2)C3=O)s1 (stereo not given) | -2.28% | 1.92% | -6.15% | -3.09% | -8.54%
CCC(=O)N1CCc2ccc(C(=O)NC3CCCCC3)cc21 | -11.7% | -9.13% | -9.13% | -12.6% | -14.9%
Cc1ccc(NS(=O)(=O)c2cc3[nH]c(=O)[nH]c3cc2C)cc1C | 10.3% | 0% | 15.2% | -3.85% | -13.1%
O=C(Nc1cccnc1)N1CCC(Cc2cccc(Oc3ccc(C(F)(F)F)cn3)c2)CC1 | 1.52% | 4.98% | 7.75% | -23.2% | -4.08%
COc1ccc2cc3n(c2c1)CC(C)(C(=O)NC1CCCC1)N(c1ccc(Cl)cc1)C3=O (stereo not given) | 1.31% | 0.146% | -1.96% | 0.321% | -4.62%
O=C(Nc1ccc([N+](=O)[O-])cc1Cl)c1cc(Cl)ccc1O | -5.57% | 1.82% | -0.537% | -8.56% | 1.74%

Compound | activity change, negative = inhibition [1] | activity change, negative = inhibition [2] | activity change, negative = inhibition [3] | activity change, negative = inhibition [4] | activity change, negative = inhibition [5]
CCCCN1C(=O)c2ccc(-c3ccccc3)n2CC1(C)C(=O)NC1CCCCCCC1 (stereo not given) | -2.36% | -3.53% | 2.71% | -5.69% | 0.167%
Cc1cc2c(cc3n2CC(C)(C(=O)NC2CCCCCC2)N(Cc2ccccc2F)C3=O)o1 (stereo not given) | 0.352% | 4.8% | -0.437% | -0.553% | -1.52%
O=C(O)CCc1nc(C2CCOCC2)n[nH]1 | 0.989% | 2.6% | 2.89% | -4.77% | -0.493%
COCCCNC(=O)c1cc2n(n1)CC(C)(C(=O)NC1CCCCCC1)N(C)C2=O (stereo not given) | 2.19% | 3.13% | -0.571% | 2.16% | 1.72%
Cc1cccc(O[C@H]2COCCN(c3nc4ccccc4s3)C2)n1 | -11.3% | 1.11% | -1.31% | -37.6% | 3.4%
CCCn1c(=O)c2cc(Cl)ccc2n2c(=O)n(CC(=O)c3ccc(OC)cc3)nc12 | 2.11% | 4.87% | 2.37% | 1.15% | 2.84%
O[C@H]1[C@H](NCc2ccc(F)cc2)[C@H]2CO[C@H](O2)[C@@H]1N1CCC(Cc2ccccc2)CC1 | -6.56% | -4.63% | -1.71% | -3.71% | 12.2%
Cc1cc(C)nc(NS(=O)(=O)c2ccc(NC(=S)NC(=O)COc3ccc(Br)cc3Cl)cc2)n1 | -17% | 8.64% | 3.18% | -32.3% | -9.77%
Cc1cnccc1NCCn1ccnc1-c1cc2n(n1)CCCNC2 | -2.27% | -3.54% | -76.3% | -3.61% | -1.67%
Cc1ccc(NS(=O)(=O)c2cc3c(cc2C)n(C)c(=O)n3C)cc1 | 9.97% | 0% | 6.33% | -4.66% | 2.68%
CCCNc1ccc2nncn2n1 | -5.58% | -7.26% | -2.48% | -14.6% | 8.79%
O=C(NCc1ccnc2[nH]ccc12)c1cc(F)ccc1Br | -8.54% | -7.97% | -13% | -16.8% | -7.59%
CCc1cc2c(cc3n2CC(C)(C(=O)NC2CCCCC2)N(c2cc(C)cc(C)c2)C3=O)s1 (stereo not given) | -9.46% | -1.78% | -5.14% | 2.26% | -5.64%
CCCn1c(=O)c2cc(F)ccc2n2c(SCC(=O)Nc3ccc(C)cc3C)nnc12 | -5.28% | 0% | -0.288% | 1.38% | 3.99%
CN1C(=O)c2cc(C(=O)NCc3cccc(Cl)c3)nn2CC1(C)C(=O)NCc1ccc(F)cc1 (stereo not given) | 3.2% | 4.77% | 6% | -1.81% | 0.619%
C=C(C(=O)O)C1CC2=C(C)CCCC2(C)C[C@@H]1O (stereo not given in full) | -1.14% | 1.3% | 7.17% | -11.6% | 1.48%
COc1ccccc1CNC(=O)C1(C)Cn2cnc(C(=O)NCc3cccc(F)c3)c2C(=O)N1C1CC1 (stereo not given) | 3.58% | 0% | 2.63% | 3.84% | 0.945%
CNC(=O)c1cc(C2CC2)nc2onc(C3CCN(C(=O)C4CCCCC4)CC3)c12 | -3.74% | 0.045% | -0.613% | -6.68% | -4.01%
CNC(=O)[C@@H]1CN(S(=O)(=O)c2cccnc2)C[C@H]1C1CCN(C)CC1 | 0.296% | -0.539% | -4.45% | -0.586% | -0.434%
CCC[C@@H]1C[C@@H](C(=O)N[C@H](C(C)Cl)[C@H]2O[C@H](SC)[C@H](O)[C@@H](O)[C@H]2O)N(C)C1 (stereo not given in full) | 4.31% | – | 9.2% | – | –

Compound | activity change, negative = inhibition [1] | activity change, negative = inhibition [2] | activity change, negative = inhibition [3] | activity change, negative = inhibition [4] | activity change, negative = inhibition [5]
CN1CCC(c2c[nH]c3ccc(NC(=O)c4ccc(F)cc4)cc23)CC1 | 0.685% | 6.08% | -61% | -8.11% | 4.18%
COCCCNc1nc2c(S(=O)(=O)c3ccc(C(C)C)cc3)nnn2c2ccccc12 | -6.58% | 4.53% | -1.28% | -8.6% | -6.83%
CCCC(C)N1CC2(CCN(C(=O)c3ccc(C(C)=O)s3)CC2)OC1=O (stereo not given) | -2.57% | -7.02% | -1.76% | -5.86% | -3.93%
O=C1COC2(CCN(S(=O)(=O)c3ccc(-c4ccc5cccnc5c4)cc3)CC2)CN1C1CC1 | -19.5% | -4.44% | -2.16% | -30% | 1.23%
Cc1ccc(CN2CCN(c3ncnc4onc(C)c34)CC2CCO)cc1 (stereo not given) | -4.98% | -10.2% | -6% | -12.6% | -9.54%
CCCn1cnc2c1CN(C(=O)c1ccc(F)cc1)[C@H](C(=O)OC)C2 | -4.85% | -3.98% | -2.54% | -7.38% | -1.83%
O[C@@H]1C[C@@H](c2nc(Cc3ccc(F)cc3Cl)no2)N(Cc2ccc(OC(F)(F)F)cc2)C1 | -11% | -7.58% | -3.42% | -20.1% | -10.2%
C[C@@H]1O[C@@H](O[C@@H]2[C@@H](O)[C@H](O[C@H]3[C@H](O[C@H]4CC[C@@]5(C)C(CC[C@]6(C)C5CC=C5[C@@H]7CC(C)(C)CC[C@]7(C(=O)O[C@@H]7O[C@H](CO)[C@@H](O)[C@H](O)[C@H]7O)CC[C@]56C)C4(C)C)O[C@H](C(=O)O)[C@@H](O)[C@@H]3O)OC[C@H]2O)[C@H](O)[C@H](O)[C@H]1O (stereo not given in full) | 4.73% | 8.54% | 6.48% | -5.81% | 8.56%
C/C=C/CCC1Cc2cc(O)c(CCCC)c(O)c2C(=O)O1 (stereo not given) | 4.33% | -3.27% | 11.1% | -18.2% | -7.67%
Cc1cc(C)cc(-c2ccc(CN3CCCC(N[S+](C)(=O)[O-])C3)cc2)c1 (stereo not given) | -2.58% | 0.972% | 1.32% | -3.01% | -0.074%
CCOC(=O)c1cc2n(n1)CC(C)(C(=O)NC1CCCCC1)N(c1cc(Cl)ccc1C)C2=O (stereo not given) | -1.3% | 1.96% | -17.1% | -6.08% | -5.5%
Cc1cccc([C@H]2Nc3ccc(S(=O)(=O)Nc4cc(C)ccc4C)cc3[C@H]3C=CC[C@H]32)c1 | -13.4% | -8.09% | -18.3% | -10.6% | -15.7%
C[C@@H]1O[C@@H](OC2C(O[C@H]3[C@H](O[C@H]4CC[C@@]5(C)C(CC[C@]6(C)C5CC=C5C7CC(C)(C)CC(O)[C@]7(C)CC[C@]56C)C4(C)C)O[C@H](C(=O)O)[C@@H](O)[C@@H]3O)OC(CO)C(O)C2O)[C@H](O)[C@H](O)[C@H]1O (stereo not given in full) | 3.49% | 8.41% | 9.34% | -19.5% | 4.3%
CC(C)c1ccc(N2C(=O)c3cc4sccc4n3CC2(C)C(=O)NC2CCCCC2C)cc1 (stereo not given) | 1.39% | 0.535% | 3.02% | 4.13% | -3.57%
Cc1cccc(-c2nn3c(c2-c2ccnc4ccc(C(N)=O)cc24)CCC3)n1 | 5.71% | 4.47% | 8.67% | -10.8% | 3.89%
CC1(C(=O)NC2CCCCCCC2)Cn2c(cc3occc32)C(=O)N1C1CCCCCC1 (stereo not given) | 2.29% | 0.942% | 9.05% | -1.61% | 1.11%
CCCC1c2ccc(C)n2CCN1C(=O)Nc1cc(Cl)ccc1C (stereo not given) | 6.23% | 1.45% | -1.89% | 9.75% | 1.03%
COc1ccc(-c2n[nH]n3c2nc(=O)c2ccc(C(=O)NCc4ccccc4Cl)cc23)cc1 | -8.35% | 0% | 6.08% | 3.23% | 0.06%
